This is an account of results in US20230365699A1.

For this assay, the target named is human BCMA (B-cell maturation antigen) expressed on cells (human) (UniProt Q02223). Put plainly: flow cytometry, hBCMA-expressing HEK293 cells against parental HEK293 cells.
Chain of UniProt Q02223 (Q02223 whole entry): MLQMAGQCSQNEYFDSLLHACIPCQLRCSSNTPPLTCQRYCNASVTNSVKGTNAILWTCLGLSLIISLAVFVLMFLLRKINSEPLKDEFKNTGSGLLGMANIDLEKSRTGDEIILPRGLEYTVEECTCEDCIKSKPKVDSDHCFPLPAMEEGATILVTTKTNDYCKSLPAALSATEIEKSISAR

B1: BCMA-19 scFv (scFv)
scFv: [about 100 residues not spelt out]DGGDVWGQGTTVTVSSGGGGSGGGGSGGGGSQAVLTQPASVSGSPGQSITISCTGTSSDVGDYNYVAWYQQHPGKDPKLMIFEVINRPSGVSDRFSGSKSGNTASLDISGLQPEDEADYYCISYSRGSTPYVIGTGTKVTVL
Take B1: the fold selective binding (hBCMA-expressing HEK293 over parental HEK293) came to 4.2 fold.
